Assay results reported in PubChem BioAssay AID686978 (National Center for Advancing Translational Sciences (NCATS), 2013).
Several values for one entry are separate records, joined by “and”; a condition that tells them apart may be missing. Identical values can stand only once. Out of some 420,000 compounds screened, about 64,000 (15%) were called active. The shares of active, inactive and inconclusive entries below differ from those in the screen. The call rests on the fitted dose curve; in most records, active means well fitted inhibition curve with a large enough effect; inconclusive means small, poorly fitted or top-dose-only effect; inactive means flat fitted curve, though single readings scatter. A potency beside an inconclusive call is a rough fit, not a confirmed value.

Test: qHTS for Inhibitors of human tyrosyl-DNA phosphodiesterase 1 (TDP1): qHTS in cells in absence of CPT; further: nearly all actives have a fitted effect of over 55% in size
Conditions: DT40 Tdp1-/- hTDP1 cells, no CPT, ATP luminescence, 48 h; activity change, negative = growth inhibition: at 46.2 µM (top of the series) unless noted
Procedure, shortened: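 No-CPT arm: Tdp1-/-;hTDP1 DT40 cells (400/well) plus compounds, incubated ≥48 hr at 37 °C. Readout CellTiter-Glo luminescence.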
On the % scale 0 is the no-effect control and ±100 the full control effect; potency means the concentration at half of the fitted maximal effect; tags describe the fitted curve by direction and shape.

Structure (SMILES)	Potency	activity change, negative = growth inhibition
CN(CCCNC(=O)c1cn(C)c2ccc(S(=O)(=O)N(C)C)cc2c1=O)c1ccccc1	inconclusive: 16.4 µM [inhibitor, partial curve]	–
CCCN(CC(=O)Nc1ccccc1C)C(=O)c1ccc(COc2ccccc2)cc1	inconclusive: 18.4 µM [inhibitor, single point]	–
CCOc1cccc(C(=O)NC(=S)Nc2ccc3c(c2)OCCO3)c1	inconclusive: 29.1 µM [inhibitor, single point]	–
CCOC(=O)c1c(C)c(C)n(Cc2cccc(OC)c2OC)c1C	active: 23.1 µM	–
O=C(CSc1cn(CCNC(=O)c2cccs2)c2ccccc12)NC1CCCC1	active: 16.4 µM	–
COc1ccc(-c2nnc3sc(COc4ccccc4)nn23)cc1	inconclusive: 16.4 µM [inhibitor, single point]	–
COc1cc(-c2c(CCO)sc3ccccc23)cc(OC)c1OC	active: 6.51 µM	–
COc1ccc(CCNC(C(=O)Nc2cc(C)cc(C)c2)c2ccccc2)cc1 (configuration not stated)	inconclusive: 23.1 µM [inhibitor, single point]	–
CCN(c1ccc(C)cc1C)S(=O)(=O)c1nnc(NC(=O)c2ccccc2OC)s1	active: 16.4 µM	–
Cc1ccc(C(=O)N2CCCC(c3nc4c(nnn4Cc4ccccc4)c(=O)[nH]3)C2)cc1 (configuration not stated)	inactive	–
O=C(Nc1ccccc1)Nc1nnc(-c2ccccc2)o1	inconclusive: 16.4 µM [inhibitor, single point]	–
CCOc1ccc(N2C(=O)CC(N3CCN(c4ccccc4F)CC3)C2=O)cc1 (configuration not stated)	inconclusive: 25.9 µM [inhibitor, single point]	–
O=C(CSc1oc(-c2ccco2)nc1S(=O)(=O)c1ccccc1)c1ccc(Cl)cc1	inconclusive: 20.6 µM [inhibitor, single point]	–
O=C(Cn1cnc(S(=O)(=O)N2CCCCC2)c1)NCc1ccco1	inactive	–
COc1ccc(/C=C/C(=O)NCCSCc2ccco2)cc1OC	inconclusive: 29.1 µM [inhibitor, single point]	–
O=C(Nc1ccc(S(=O)(=O)N2CCCCC2)cc1)c1ccc(Cl)nc1	active: 6.51 µM	–
O=C(OCc1ccccc1)c1ccc(Br)o1	inactive	–
CCOC(=O)c1cnc(N)nc1C(F)(F)F	inactive	–
CCNC(=O)CN1C(=O)NC2(CCOc3ccccc32)C1=O (configuration not stated)	inactive	–
COc1ccc(-n2nnnc2C(c2ccccc2OC(F)(F)F)N2CCN(C/C=C/c3ccccc3)CC2)cc1 (configuration not stated)	active: 16.4 µM	–
Cc1ccc(S(=O)(=O)N2CC(O)C[C@H]2C(=O)OCC(=O)c2ccccc2)cc1 (some centres not stated)	inactive	–
CCOC(=O)C1(Cc2ccc(OC)cc2)CCN(C(=O)c2cccc3nccnc23)CC1	inactive	–
CC1=C(C(=O)N(C(C)C)C(C)C)CC(CC(=O)NC(c2ccccc2)c2ccccc2)C(=O)N1CCCN1CCCC1=O (configuration not stated)	inactive	–
Cc1ccc(S(=O)(=O)NCc2ccccc2)cc1C(=O)N1CCCC(C(F)(F)F)C1 (configuration not stated)	active: 18.4 µM	–

Structure (SMILES)	Potency	activity change, negative = growth inhibition
COc1ccc2[nH]c(=O)c(CN(CCO)S(=O)(=O)c3ccc4c(c3)OCCO4)cc2c1	inconclusive: 8.2 µM [inhibitor, partial curve, poor fit]	–
CN(C)c1ccc(-c2nnn(Cc3ccccc3Br)n2)cc1	inconclusive: 29.1 µM [inhibitor, single point]	–
O=[N+]([O-])c1cc(-n2cccc2)ccc1N1CCOCC1	inconclusive: 16.4 µM [inhibitor, single point]	–
CCN1CCN(c2cc3c(cc2F)c(=O)c(S(=O)(=O)c2cc(C)cc(C)c2)cn3CC)CC1	inconclusive: 16.4 µM [inhibitor, partial curve]	–
CC(=O)Nc1cccc(OCC(=O)Nc2ccc(F)cc2)c1	inconclusive: 23.1 µM [inhibitor, single point]	–
COc1ccc(-n2cc(-c3ccccc3)c3c(NCCc4ccc(OC)c(OC)c4)ncnc32)cc1	active: 20.6 µM	–
Cc1nc2ccccc2c(=O)n1-c1cccc(NC(=O)c2cccs2)c1	inconclusive: 13 µM [inhibitor, partial curve]	–
Cc1ccc(C(c2c(NC(=O)c3ccco3)sc(C)c2C)N2CCOCC2)cc1 (configuration not stated)	inconclusive: 29.1 µM [inhibitor, single point]	–
CCOC(=O)c1c(C)[nH]c(C(=O)COC(=O)COc2ccc(OC)cc2)c1C	inactive	–
CCOC(=O)c1ccc(NC(=O)c2c(NCc3cc(OC)c(OC)cc3OC)sc3c2CCCC3)cc1	inconclusive: 18.4 µM [inhibitor, single point]	–
O=C(COc1ccc([N+](=O)[O-])cc1)Nc1ccc2c(c1)OCO2	inconclusive: 20.6 µM [inhibitor, partial curve]	–
CCOc1ccc(-c2nonc2NC(=O)COc2ccccc2)cc1	inconclusive: 29.1 µM [inhibitor, single point]	–
CCOC(=O)C1CCCN(C(=O)CNC(=O)c2nn(-c3ccc(OC)c(Cl)c3)c(=O)c3ccccc23)C1 (configuration not stated)	inconclusive: 25.9 µM [inhibitor, single point]	–
O=[n+]1cc(-c2cccc3ccccc23)n([O-])c2c1CCC2	inactive	–
Cc1cccc(NC(=O)c2ccccc2[N+](=O)[O-])n1	inactive	–
COc1cccc(Cl)c1NC(=O)N1CCc2c([nH]c3ccccc23)C1C(F)(F)F (configuration not stated)	inconclusive: 20.6 µM [inhibitor, single point]	–
COC(=O)c1ccc(COC(=O)CNC(=O)CNC(=O)c2ccc(OC)cc2)cc1	inconclusive: 29.1 µM [inhibitor, single point]	–
CCN(CC)CCCOc1ccc(C)cc1Br	inactive	–
CCOC(=O)c1c(NC(=O)C(C)N2CCN(C(=O)c3ccco3)CC2)sc2c1CCCC2 (configuration not stated)	active: 16.4 µM	–
COCCNC(=O)c1ccc(N2CCCCC2)c(NS(=O)(=O)c2ccc(C)cc2)c1	inconclusive: 29.1 µM [inhibitor, partial curve]	–
O=C(c1ccco1)N1CCN(C(=O)c2snc3ccc(Cl)cc23)CC1	inconclusive: 16.4 µM [inhibitor, partial curve]	–
CC1=C(C(=O)OCC2CCCCC2)C(c2cccc(F)c2F)CC(=O)N1 (configuration not stated)	inconclusive: 14.6 µM [inhibitor, partial curve, poor fit]	–
CC1(C)C2CCC1(CS(=O)(=O)N1CCCc3ccccc31)C(=O)C2 (configuration not stated)	inconclusive: 29.1 µM [inhibitor, single point]	–
O=C(CN1CCOCC1)Nc1ccc(C2CCCCC2)cc1	inconclusive: 23.1 µM [inhibitor, partial curve, poor fit]	–

Structure (SMILES)	Potency	activity change, negative = growth inhibition
CC(NC(=O)NC(=O)c1ccc(Cl)cc1Cl)C1CC1 (configuration not stated)	inactive	–
Cc1ccc(S(=O)(=O)n2nc(OC(=O)c3c(-c4ccccc4Cl)noc3C)cc2N)cc1	active: 14.6 µM	–
C[C@H](NC(=O)C1CCN(S(=O)(=O)c2ccccc2)CC1)C(=O)NCc1ccncc1	inactive	–
CCSc1nnc2n(-c3ccc(OC)cc3)c(=O)c3c4c(sc3n12)CCCC4	inconclusive: 29.1 µM [inhibitor, single point]	–
Cc1cccc(NC(=O)N2CCCC2C(=O)NCc2cccs2)c1 (configuration not stated)	inactive	–
Oc1ccc2ccccc2c1C=Nc1cc(C(F)(F)F)ccc1N1CCCC1	inactive	–
Cc1cc(C)cc(OCCn2c(CCNC(=O)C3CCCCC3)nc3ccccc32)c1	inactive and inconclusive: 12.6 µM [inhibitor, partial curve]	–
COc1ccccc1N1CCN(C(=O)c2cc3c(C)nc4ccccc4c3o2)CC1	active: 4.11 µM	–
O=C(Cc1ccccc1F)N1CCC(c2nc3c(nnn3Cc3cccc(Cl)c3)c(=O)[nH]2)CC1	inconclusive: 16.4 µM [inhibitor, single point]	–
Cc1ccc(-n2c(-c3ccco3)nc3c(cnn3-c3ccc(C)cc3)c2=O)cc1	active: 5.8 µM and active: 4.11 µM	–
COc1ccccc1N1CCN(S(=O)(=O)CCNC(=O)CC2CCCC2)CC1	inconclusive: 29.1 µM [inhibitor, single point]	–
CC(OC(=O)c1ccc2c(=O)n3c(nc2c1)CCCCC3)C(=O)Nc1ncc(Cl)cc1Cl (configuration not stated)	inactive	–
FC(F)(F)c1nnc2c(Sc3ccccn3)nc3ccccc3n12	active: 4.61 µM	–
O=C(c1sc2ccccc2c1Cl)N1CCN(c2ccccn2)CC1	inactive	–
Cc1c(C(=O)Nc2cc(S(=O)(=O)N3CCOCC3)ccc2N2CCN(C)CC2)oc2ccccc12	active: 18.4 µM	–
Cc1ccc2c(c1)C(=O)C(=O)N2CC(=O)Nc1ccccc1NC(=O)c1ccccn1	active: 5.8 µM	–
O=C(CC1(O)C(=O)N(Cc2ccccc2)c2ccc(Br)cc21)c1ccccc1 (configuration not stated)	active: 5.8 µM	–
CCc1ccc(N2CC(C(=O)N3CCN(c4ccccn4)CC3)CC2=O)cc1 (configuration not stated)	inconclusive: 29.1 µM [inhibitor, single point]	–
Cc1nn2cnnc2c(C)c1Cc1ccc(Cl)cc1	inconclusive: 13 µM [inhibitor, partial curve]	–
COc1ccc(-n2c(=O)c(C)nc3cnc(Oc4ccccc4)nc32)cc1	inconclusive: 20.6 µM [inhibitor, single point]	–
CSc1ccc(CN(C)Cc2nc3cc(C(F)(F)F)ccc3c(=O)[nH]2)cc1	inconclusive: 29.1 µM [inhibitor, single point]	–
CCOc1cccc(Oc2ccc(C(F)(F)F)cn2)c1	inactive	–
O=C(Nc1ccc2c(c1)OCCO2)C1CCN(c2cnccn2)CC1	–	inconclusive: -32.6% [inhibitor]
CCOc1ccc(NC(=O)c2c(NC(=O)c3ccccc3Br)sc3c2CCC(C)C3)cc1 (configuration not stated)	inconclusive: 20.6 µM [inhibitor, single point]	–
